Source: the supplement of paper PMC8948288
Shown are siRNA guide strands that differ only in the seed, positions 2 to 7.

What was measured:
GL261 = experiment: cell viability relative to siNT1 (ATP content); H4 human neuroglioma and GL261 mouse glioma; higher = less toxic; details: siRNA concentration 25 nM; 96 h; mouse
Protocol: (§1)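 Arrayed screen of all 4096 6mer seeds. Each seed sits at guide-strand positions 2-7 of a neutral 19mer siRNA backbone (siNT1-based, passenger strand 2'-O-methyl modified at positions 1-2 to block RISC loading, 3' DNA overhangs). The guide strand is built here as U + seed + ACAUGUAAACCA. Cells were reverse transfected in triplicate in 384-well plates (H4 at 10 nM, GL261 at 25 nM) with Lipofectamine RNAiMAX. Viability was read as ATP content (CellTiter-Glo) 96 h after transfection and normalised to siNT1 (%).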

H4 = experiment: as above; details: siRNA concentration 10 nM; 96 h; human
Protocol: as §1
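Further: cells reverse transfected with siRNA duplexes via lipid reagent, ATP read by luminescence, triplicate wells, values scaled to mean viability with non-targeting control siNT1.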

## UAUCGGUACAUGUAAACCA
GL261
  cell viability: 37.1%
H4
  cell viability: 74%

## UAUCGUAACAUGUAAACCA
GL261
  cell viability: 63.9%
H4
  cell viability: 106%

## UAUCGUCACAUGUAAACCA
GL261
  cell viability: 41.2%
H4
  cell viability: 108%

## UAUCGUGACAUGUAAACCA
GL261
  cell viability: 58.3%
H4
  cell viability: 110%

## UAUCGUUACAUGUAAACCA
GL261
  cell viability: 51.1%
H4
  cell viability: 112%

## UAUCUAAACAUGUAAACCA
GL261
  cell viability: 49%
H4
  cell viability: 115%

## UAUCUACACAUGUAAACCA
GL261
  cell viability: 38.9%
H4
  cell viability: 95.6%

## UAUCUAGACAUGUAAACCA
GL261
  cell viability: 45.5%
H4
  cell viability: 106%

## UAUCUAUACAUGUAAACCA
GL261
  cell viability: 38.1%
H4
  cell viability: 93%

## UAUCUCAACAUGUAAACCA
GL261
  cell viability: 31.6%
H4
  cell viability: 105%

## UAUCUCCACAUGUAAACCA
GL261
  cell viability: 23.7%
H4
  cell viability: 90.3%

## UAUCUCGACAUGUAAACCA
GL261
  cell viability: 42.2%
H4
  cell viability: 102%

## UAUCUCUACAUGUAAACCA
GL261
  cell viability: 21.3%
H4
  cell viability: 76.1%

## UAUCUGAACAUGUAAACCA
GL261
  cell viability: 64.3%
H4
  cell viability: 86.3%

## UAUCUGCACAUGUAAACCA
GL261
  cell viability: 24.7%
H4
  cell viability: 66.9%

## UAUCUGGACAUGUAAACCA
GL261
  cell viability: 31.9%
H4
  cell viability: 42.6%

## UAUCUGUACAUGUAAACCA
GL261
  cell viability: 69.8%
H4
  cell viability: 102%

## UAUCUUAACAUGUAAACCA
GL261
  cell viability: 62.4%
H4
  cell viability: 101%

## UAUCUUCACAUGUAAACCA
GL261
  cell viability: 10.9%
H4
  cell viability: 59.7%

## UAUCUUGACAUGUAAACCA
GL261
  cell viability: 64.5%
H4
  cell viability: 81.7%

## UAUCUUUACAUGUAAACCA
GL261
  cell viability: 41%
H4
  cell viability: 106%

## UAUGAAAACAUGUAAACCA
GL261
  cell viability: 54.8%
H4
  cell viability: 106%

## UAUGAACACAUGUAAACCA
GL261
  cell viability: 40.2%
H4
  cell viability: 94.7%

## UAUGAAGACAUGUAAACCA
GL261
  cell viability: 44.7%
H4
  cell viability: 112%

## UAUGAAUACAUGUAAACCA
GL261
  cell viability: 64.6%
H4
  cell viability: 113%

## UAUGACAACAUGUAAACCA
GL261
  cell viability: 39.6%
H4
  cell viability: 93.7%

## UAUGACCACAUGUAAACCA
GL261
  cell viability: 23%
H4
  cell viability: 60.5%

## UAUGACGACAUGUAAACCA
GL261
  cell viability: 53.2%
H4
  cell viability: 114%

## UAUGACUACAUGUAAACCA
GL261
  cell viability: 32.9%
H4
  cell viability: 97.8%

## UAUGAGAACAUGUAAACCA
GL261
  cell viability: 51.5%
H4
  cell viability: 112%

## UAUGAGCACAUGUAAACCA
GL261
  cell viability: 25.9%
H4
  cell viability: 62.3%

## UAUGAGGACAUGUAAACCA
GL261
  cell viability: 33.2%
H4
  cell viability: 84.7%

## UAUGAGUACAUGUAAACCA
GL261
  cell viability: 56.5%
H4
  cell viability: 76.3%

## UAUGAUAACAUGUAAACCA
GL261
  cell viability: 53.6%
H4
  cell viability: 103%

## UAUGAUCACAUGUAAACCA
GL261
  cell viability: 42.7%
H4
  cell viability: 79.1%

## UAUGAUGACAUGUAAACCA
GL261
  cell viability: 41.6%
H4
  cell viability: 101%

## UAUGAUUACAUGUAAACCA
GL261
  cell viability: 51.2%
H4
  cell viability: 101%

## UAUGCAAACAUGUAAACCA
GL261
  cell viability: 55.4%
H4
  cell viability: 116%

## UAUGCACACAUGUAAACCA
GL261
  cell viability: 27.6%
H4
  cell viability: 39%

## UAUGCAGACAUGUAAACCA
GL261
  cell viability: 43.7%
H4
  cell viability: 100%

## UAUGCAUACAUGUAAACCA
GL261
  cell viability: 47%
H4
  cell viability: 92.6%

## UAUGCCAACAUGUAAACCA
GL261
  cell viability: 50.6%
H4
  cell viability: 125%

## UAUGCCCACAUGUAAACCA
GL261
  cell viability: 36.2%
H4
  cell viability: 78.8%

## UAUGCCGACAUGUAAACCA
GL261
  cell viability: 48.3%
H4
  cell viability: 106%

## UAUGCCUACAUGUAAACCA
GL261
  cell viability: 36.5%
H4
  cell viability: 34.5%

## UAUGCGAACAUGUAAACCA
GL261
  cell viability: 55.8%
H4
  cell viability: 104%

## UAUGCGCACAUGUAAACCA
GL261
  cell viability: 41.9%
H4
  cell viability: 67.5%

## UAUGCGGACAUGUAAACCA
GL261
  cell viability: 44.8%
H4
  cell viability: 93.2%

## UAUGCGUACAUGUAAACCA
GL261
  cell viability: 35.2%
H4
  cell viability: 99.8%

## UAUGCUAACAUGUAAACCA
GL261
  cell viability: 56.3%
H4
  cell viability: 95.1%

## UAUGCUCACAUGUAAACCA
GL261
  cell viability: 44.5%
H4
  cell viability: 81.5%

## UAUGCUGACAUGUAAACCA
GL261
  cell viability: 49.2%
H4
  cell viability: 87.6%

## UAUGCUUACAUGUAAACCA
GL261
  cell viability: 36.8%
H4
  cell viability: 88.6%

## UAUGGAAACAUGUAAACCA
GL261
  cell viability: 82.6%
H4
  cell viability: 116%

## UAUGGACACAUGUAAACCA
GL261
  cell viability: 34.4%
H4
  cell viability: 72.7%

## UAUGGAGACAUGUAAACCA
GL261
  cell viability: 72.8%
H4
  cell viability: 81.7%

## UAUGGAUACAUGUAAACCA
GL261
  cell viability: 52.8%
H4
  cell viability: 83.8%

## UAUGGCAACAUGUAAACCA
GL261
  cell viability: 50.5%
H4
  cell viability: 94.5%

## UAUGGCCACAUGUAAACCA
GL261
  cell viability: 29.9%
H4
  cell viability: 36.1%

## UAUGGCGACAUGUAAACCA
GL261
  cell viability: 50.4%
H4
  cell viability: 91.8%

## UAUGGCUACAUGUAAACCA
GL261
  cell viability: 33.3%
H4
  cell viability: 77.5%

## UAUGGGAACAUGUAAACCA
GL261
  cell viability: 65.7%
H4
  cell viability: 93%

## UAUGGGCACAUGUAAACCA
GL261
  cell viability: 36.7%
H4
  cell viability: 41.7%

## UAUGGGGACAUGUAAACCA
GL261
  cell viability: 55.9%
H4
  cell viability: 68.6%

## UAUGGGUACAUGUAAACCA
GL261
  cell viability: 38.9%
H4
  cell viability: 83.6%

## UAUGGUAACAUGUAAACCA
GL261
  cell viability: 52.1%
H4
  cell viability: 95.3%

## UAUGGUCACAUGUAAACCA
GL261
  cell viability: 29%
H4
  cell viability: 69.9%

## UAUGGUGACAUGUAAACCA
GL261
  cell viability: 44.9%
H4
  cell viability: 105%

## UAUGGUUACAUGUAAACCA
GL261
  cell viability: 51.7%
H4
  cell viability: 105%

## UAUGUAAACAUGUAAACCA
GL261
  cell viability: 46.6%
H4
  cell viability: 80.5%

## UAUGUACACAUGUAAACCA
GL261
  cell viability: 12.1%
H4
  cell viability: 82.6%

## UAUGUAGACAUGUAAACCA
GL261
  cell viability: 50.6%
H4
  cell viability: 104%

## UAUGUAUACAUGUAAACCA
GL261
  cell viability: 42.9%
H4
  cell viability: 75.8%

## UAUGUCAACAUGUAAACCA
GL261
  cell viability: 41.8%
H4
  cell viability: 118%

## UAUGUCCACAUGUAAACCA
GL261
  cell viability: 13.6%
H4
  cell viability: 34.5%

## UAUGUCGACAUGUAAACCA
GL261
  cell viability: 43.7%
H4
  cell viability: 90.2%

## UAUGUCUACAUGUAAACCA
GL261
  cell viability: 16.7%
H4
  cell viability: 84.9%

## UAUGUGAACAUGUAAACCA
GL261
  cell viability: 50.8%
H4
  cell viability: 97.3%

## UAUGUGCACAUGUAAACCA
GL261
  cell viability: 41%
H4
  cell viability: 103%

## UAUGUGGACAUGUAAACCA
GL261
  cell viability: 26.4%
H4
  cell viability: 69.5%

## UAUGUGUACAUGUAAACCA
GL261
  cell viability: 15.3%
H4
  cell viability: 59.4%

## UAUGUUAACAUGUAAACCA
GL261
  cell viability: 56.4%
H4
  cell viability: 96.8%

## UAUGUUCACAUGUAAACCA
GL261
  cell viability: 29.4%
H4
  cell viability: 70.8%

## UAUGUUGACAUGUAAACCA
GL261
  cell viability: 62.2%
H4
  cell viability: 108%

## UAUGUUUACAUGUAAACCA
GL261
  cell viability: 33%
H4
  cell viability: 71.1%

## UAUUAAAACAUGUAAACCA
GL261
  cell viability: 70.7%
H4
  cell viability: 103%
